Results: patent publication US20250129160A1 (Amgen, published 2025)
Blank lines part the entries; values can stand above or below the binder they belong to. Ends that are not written are not given here.

What was measured:
human CCR8 [1] = target: T1, human CCR8 (human, UniProt P51685 1-355); test: cell-based or functional assay
human CCR8 isoform A27G = human CCR8 isoform A27G (human, UniProt P51685 1-355); test: cell-based or functional assay
[2] = target: T2, cynomolgus monkey CCR8 (Chinese origin) (cynomolgus monkey, UniProt O97665 1-356 (rhesus entry)); test: cell-based or functional assay
human CCR8 [3] = target: T1, human CCR8; test: cell-based or functional assay; remark: listed apart in the source
human CD3 = target: T3, human CD3 (human, UniProt P07766); test: flow cytometry on HPB-all
T3 construct: whole, on cells; also called CD3e

cynomolgus CD3 = target: T4, cynomolgus CD3 (cynomolgus, UniProt Q95LI5 22-198); test: flow cytometry on LnPx4119
T4 construct: whole, on cells; also called cyno CD3

[4] = target: T2, cynomolgus monkey CCR8 (Chinese origin); test: cyno Kd divided by human Kd
[5] = target: T2, cynomolgus monkey CCR8 (Chinese origin); test: flow cytometry on Cy CCR8+ CHO
human CCR8 [6] = target: T1, human CCR8; test: flow cytometry on hu CCR8+ CHO
[7] = target: T5, cynomolgus monkey CCR8 (T4R), Mauritian origin (cynomolgus monkey, UniProt O97665 1-356 (rhesus entry)); test: cyno (T4R) Kd divided by human Kd
T5 construct: also called cy CCR8 (T4R); Cy CCR8 (T4R)
T5 chain: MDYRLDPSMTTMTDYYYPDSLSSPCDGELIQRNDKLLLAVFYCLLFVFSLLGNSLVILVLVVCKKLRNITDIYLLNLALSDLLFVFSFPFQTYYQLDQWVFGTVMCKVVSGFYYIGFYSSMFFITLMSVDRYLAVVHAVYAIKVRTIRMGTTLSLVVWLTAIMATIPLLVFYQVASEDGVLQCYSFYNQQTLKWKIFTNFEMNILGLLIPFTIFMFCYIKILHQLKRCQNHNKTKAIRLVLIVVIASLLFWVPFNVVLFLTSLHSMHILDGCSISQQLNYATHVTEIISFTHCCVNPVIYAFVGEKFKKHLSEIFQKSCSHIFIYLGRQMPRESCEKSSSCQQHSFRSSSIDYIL

[8] = target: T5, cynomolgus monkey CCR8 (T4R), Mauritian …; test: flow cytometry on Cy CCR8 (T4R)+ CHO
human CCR8 [9] = target: T1, human CCR8; test: flow cytometry on HUT-78 (CCR8+/CD3-)
human CCR8 [10] = target: T1, human CCR8; test: flow cytometry, CHO cells expressing human CCR8
[11] = target: T6, CCR8 P_13-24 peptide construct (human, not fully specified (C-terminus); also: BAP biotinylated in vivo, fused construct pieces' sequences not given here); test: flow cytometry, peptide construct on streptavidin beads
T6 construct: coupled to streptavidin beads; not shown: G4S linker, V5 tag, G4S linker, chicken albumin, then FLAG tag, BAP and H3G each via SG linker
T6 chain: TDYYYPDIFSSP

[12] = target: T2, cynomolgus monkey CCR8 (Chinese origin); test: flow cytometry, CHO cells expressing cynomolgus CCR8
[13] = target: T5, cynomolgus monkey CCR8 (T4R), Mauritian …; test: flow cytometry, CHO cells expressing cynomolgus CCR8 (T4R)
human CCR8 [14] = target: T1, human CCR8; test: flow cytometry, HuT 78 CD3E-knockout cells, 100 nM TCE, no CCL1
[15] = target: T7, CCR8 P_1-35 peptide construct (full-length N-terminal peptide of human CCR8) (human, BAP biotinylated in vivo); test: flow cytometry, peptide construct on streptavidin beads, 5 µg/mL
T7 construct: from HEK 293 supernatant, coupled to streptavidin beads; not shown: G4S linker, V5 tag, G4S linker, chicken albumin, then FLAG tag, BAP and H3G each via SG linker

[16] = target: T8, CCR8 P_1-12 peptide construct (human, not fully specified (C-terminus); also: BAP biotinylated in vivo, fused construct pieces' sequences not given here); test: as above
T8 construct: coupled to streptavidin beads; not shown: G4S linker, V5 tag, G4S linker, chicken albumin, then FLAG tag, BAP and H3G each via SG linker
T8 chain: MDYTLDLSVTTV

[17] = target: T6, CCR8 P_13-24 peptide construct; test: as above
[18] = target: T9, CCR8 P_19-30 peptide construct (human, not fully specified (C-terminus); also: BAP biotinylated in vivo, fused construct pieces' sequences not given here); test: as above
T9 construct: coupled to streptavidin beads; not shown: G4S linker, V5 tag, G4S linker, chicken albumin, then FLAG tag, BAP and H3G each via SG linker
T9 chain: DIFSSPCDAELI

[19] = target: T10, CCR8 P_25-35 peptide construct (human, not fully specified (C-terminus); also: BAP biotinylated in vivo, fused construct pieces' sequences not given here); test: as above
T10 construct: coupled to streptavidin beads; not shown: G4S linker, V5 tag, G4S linker, chicken albumin, then FLAG tag, BAP and H3G each via SG linker
T10 chain: CDAELIQTNGK

human CCR8 [20] = target: T1, human CCR8; test: flow cytometry, HuT 78 CD3E-knockout cells, competitor CCL1 200 nM
human CCR8 [21] = target: T1, human CCR8; test: flow cytometry, HuT 78 CD3E-knockout cells, 100 nM TCE after 200 nM CCL1 (competitor)
[22] = target: T11, CCR8 P_7-18 peptide construct (human, not fully specified (C-terminus); also: BAP biotinylated in vivo, fused construct pieces' sequences not given here); test: flow cytometry, peptide construct on streptavidin beads, 5 µg/mL
T11 construct: coupled to streptavidin beads; not shown: G4S linker, V5 tag, G4S linker, chicken albumin, then FLAG tag, BAP and H3G each via SG linker
T11 chain: LSVTTVTDYYYP

Chain of cynomolgus CD3 (Q95LI5 22-198): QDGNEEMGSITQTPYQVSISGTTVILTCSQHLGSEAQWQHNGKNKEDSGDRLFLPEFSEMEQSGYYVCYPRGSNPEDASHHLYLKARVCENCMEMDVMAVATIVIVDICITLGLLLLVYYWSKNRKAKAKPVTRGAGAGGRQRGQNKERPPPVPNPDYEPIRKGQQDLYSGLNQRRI
Chain of human CD3 (P07766 23-207): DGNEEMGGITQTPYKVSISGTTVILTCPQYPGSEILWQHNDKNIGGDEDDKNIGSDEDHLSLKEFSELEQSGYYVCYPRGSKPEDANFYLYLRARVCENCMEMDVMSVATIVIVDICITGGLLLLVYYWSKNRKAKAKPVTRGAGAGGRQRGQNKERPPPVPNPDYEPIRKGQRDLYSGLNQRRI

- mean BL2 of the sample/mean BL2 of the secondary antibody control (human CD3): 298 ratio
- mean BL2 of the sample/mean BL2 of the secondary antibody control (cynomolgus CD3): 33 ratio
- Affinity gap Kdcy/Kdhu CCR8 [4]: 1.8 ratio
- mean BL2 of the sample/mean BL2 of the secondary antibody control [5]: 196 ratio
- mean BL2 of the sample/mean BL2 of the secondary antibody control (human CCR8 [6]): 42 ratio
- Affinity gap Kdcy (T4R)/Kdhu CCR8 [7]: 157 ratio
- mean BL2 of the sample/mean BL2 of the secondary antibody control [8]: 1 ratio
- mean BL2 of the sample/mean BL2 of the secondary antibody control (human CCR8 [9]): 30 ratio
- Kd (human CCR8 [10]): 0.88 nM
- binding result [11]: no binding (tested: 5 µg/mL)
- Kd [12]: 1.58 nM
- Kd [13]: 138 nM
- Average Median PE, CCL1-untreated (-CCL1) (human CCR8 [14]): 27200 median PE
- Median Fluorescence of Sample/Median Fluorescence of Negative Control [15]: 471 ratio
- Median Fluorescence of Sample/Median Fluorescence of Negative Control [16]: 414 ratio
- Median Fluorescence of Sample/Median Fluorescence of Negative Control [17]: 1.1 ratio
- Median Fluorescence of Sample/Median Fluorescence of Negative Control [18]: 1.1 ratio
- Median Fluorescence of Sample/Median Fluorescence of Negative Control [19]: 1.1 ratio
- Ratio Average Median PE (+CCL1)/Average (-CCL1) (human CCR8 [20]): 1 ratio
- Average Median PE, CCL1-treated (+CCL1) (human CCR8 [21]): 27000 median PE
B1: CCR8 TCE1 scFab × I2E × scFc (bispecific antibody)
chain: EVQLVESGGGLVKPGGSLRLSCAASGFTFSNARMGWVRQAPGKGLEWVGRIKSKTEGGTRDYAAPVKGRFTISRDDSKNTLYLQMNSLKTEDTAVYYCTSYSGVWGQGTMVTVSSASTKGPSVFPLAPSSKSTSGGTAALGCLVKDYFPEPVTVSWNSGALTSGVHTFPAVLQSSGLYSLSSVVTVPSSSLGTQTYICNVNHKPSNTKVDKKVEPKSCGGGGQGGGGQGGGGQGGGGQGGGGQGGGGQGGGGQGGGGQEIVMTQSPDSLAVSLGERATINCKSSQSVLYSSNNKNYLAWYHQKPGQSPKLLISWASTRESGVPDRFSGSGSGTDFTLTINSLQAEDVAVYYCQQYYSIPITFGGGTKVEIKRTVAAPSVFIFPPSDEQLKSGTASVVCLLNNFYPREAKVQWKVDNALQSGNSQESVTEQDSKDSTYSLSSTLTLSKADYEKHKVYACEVTHQGLSSPVTKSFNRGECSGGGGQEVQLVESGGGLVQPGGSLKLSCAASGFTFNKYAINWVRQAPGKGLEWVARIRSKYNNYATYYADAVKDRFTISRDDSKNTVYLQMNNLKTEDTAVYYCARAGNFGSSYISYWAYWGQGTLVTVSSGGGGQGGGGQGGGGQQTVVTQEPSLTVSPGGTVTIT[about 80 residues not given here]FGSGTKLTVLGGGGCPPCPAPELLGGPSVFLFPPKPKDTLMISRTPEVTCVVVDVSHEEPEVKFNWYVDGVEVHNAKTKPCEEQYGSTYRCVSVLTVLHQDWLNGKEYKCKVSNKALPAPIEKTISKAKGQPREPQVYTLPPSREEMTKNQVSLTCLVKGFYPSDIAVEWESNGQPENNYKTTPPVLDSDGSFFLYSKLTVDKSRWQQGNVFSCSVMHEALHNHYTQKSLSLSPGKGGGGQGGGGQGGGGQGGGGQGGGGQGGGGQCPPCPAPELLGGPSVFLFPPKPKDTLMISRTPEVTCVVVDVSHEEPEVKFNWYVDGVEVHNAKTKPCEEQYGSTYRCVSVLTVLHQDWLNGKEYKCKVSNKALPAPIEKTISKAKGQPREPQVYTLPPSREEMTKNQVSLTCLVKGFYPSDIAVEWESNGQPENNYKTTPPVLDSDGSFFLYSKLTVDKSRWQQGNVFSCSVMHEALHNHYTQKSLSLSPGK
notes: single chain; also called TCE1 scFab (CCR8) x scFv (CD3) x scFc
- #A2 EC50, 48-hour FACS based cytotoxicity assay (human CCR8 [1]): 0.0144 nM
- A27G EC50, 48-hour FACS based cytotoxicity assay (human CCR8 isoform A27G): 0.0157 nM
- #G4 EC50, 48-hour FACS based cytotoxicity assay [2]: 0.00391 nM
- EC50, 48-hour FACS based cytotoxicity assay, HUT-78 (CD3+) (human CCR8 [3]): 0.0469 nM

- Affinity gap Kdcy/Kdhu CCR8 [4]: 25.1 ratio
- Affinity gap Kdcy (T4R)/Kdhu CCR8 [7]: 32.4 ratio
- Kd (human CCR8 [10]): 21.9 nM
- Kd [12]: 552 nM
- Kd [13]: 712 nM
- Average Median PE, CCL1-untreated (-CCL1) (human CCR8 [14]): 2420 median PE
- Median Fluorescence of Sample/Median Fluorescence of Negative Control [15]: 814 ratio
- Median Fluorescence of Sample/Median Fluorescence of Negative Control [16]: 1 ratio
- Median Fluorescence of Sample/Median Fluorescence of Negative Control [22]: 1 ratio
- Median Fluorescence of Sample/Median Fluorescence of Negative Control [17]: 432 ratio
- Median Fluorescence of Sample/Median Fluorescence of Negative Control [18]: 1.1 ratio
- Median Fluorescence of Sample/Median Fluorescence of Negative Control [19]: 1 ratio
- Ratio Average Median PE (+CCL1)/Average (-CCL1) (human CCR8 [20]): 0.64 ratio
- Average Median PE, CCL1-treated (+CCL1) (human CCR8 [21]): 1550 median PE
B2: CCR8 TCE2 scFab × I2E × scFc (bispecific antibody)
chain: QVQLVESGGGVVQPGRSLRLSCAASGFTFSNYGMHWVRQAPGKGLEWVAVISYDGSNKFYADSVKGRFTISRDNSKKTLYLQMSSLRVEDTAVYYCARAGGIGRFDYWGQGTLVTVSSASTKGPSVFPLAPSSKSTSGGTAALGCLVKDYFPEPVTVSWNSGALTSGVHTFPAVLQSSGLYSLSSVVTVPSSSLGTQTYICNVNHKPSNTKVDKKVEPKSCGGGGQGGGGQGGGGQGGGGQGGGGQGGGGQGGGGQGGGGQDFVMTQTPLSLSVTPGQPASISCKYSQSLLHSDGKTYLFWYLQKPGQPPHLLIYEVSNRFSGVPDRFSGSGSGTDFTLKISRVEAEDVGLYYCMQTLKLPLTFGGGTKVEINRTVAAPSVFIFPPSDEQLKSGTASVVCLLNNFYPREAKVQWKVDNALQSGNSQESVTEQDSKDSTYSLSSTLTLSKADYEKHKVYACEVTHQGLSSPVTKSFNRGECSGGGGQEVQLVESGGGLVQPGGSLKLSCAASGFTFNKYAINWVRQAPGKGLEWVARIRSKYNNYATYYADAVKDRFTISRDDSKNTVYLQMNNLKTEDTAVYYCARAGNFGSSYISYWAYWGQGTLVTVSSGGGGQGGGGQGGGGQQTVVTQEPSLTVSPGGTVTIT[about 80 residues not given here]FGSGTKLTVLGGGGCPPCPAPELLGGPSVFLFPPKPKDTLMISRTPEVTCVVVDVSHEEPEVKFNWYVDGVEVHNAKTKPCEEQYGSTYRCVSVLTVLHQDWLNGKEYKCKVSNKALPAPIEKTISKAKGQPREPQVYTLPPSREEMTKNQVSLTCLVKGFYPSDIAVEWESNGQPENNYKTTPPVLDSDGSFFLYSKLTVDKSRWQQGNVFSCSVMHEALHNHYTQKSLSLSPGKGGGGQGGGGQGGGGQGGGGQGGGGQGGGGQCPPCPAPELLGGPSVFLFPPKPKDTLMISRTPEVTCVVVDVSHEEPEVKFNWYVDGVEVHNAKTKPCEEQYGSTYRCVSVLTVLHQDWLNGKEYKCKVSNKALPAPIEKTISKAKGQPREPQVYTLPPSREEMTKNQVSLTCLVKGFYPSDIAVEWESNGQPENNYKTTPPVLDSDGSFFLYSKLTVDKSRWQQGNVFSCSVMHEALHNHYTQKSLSLSPGK
notes: single chain; also called TCE2 scFab (CCR8) x scFv (CD3) x scFc
- #A2 EC50, 48-hour FACS based cytotoxicity assay (human CCR8 [1]): 0.29 nM
- A27G EC50, 48-hour FACS based cytotoxicity assay (human CCR8 isoform A27G): 0.342 nM
- EC50, 48-hour FACS based cytotoxicity assay, HUT-78 (CD3+) (human CCR8 [3]): 3.51 nM
